Test results reported in the supplement of paper PMC10126150.
Sequences with one replicate were seen in a single cluster, so their values are uncertain.

Tested on: ATP
Assay: switch fluorescence ratio, 500 uM ATP over buffer (Cy3 cluster intensity, sum of 5 cycles each) (fold (ratio)); higher = stronger signal-on switching upon ATP binding; sequences stand for … in TCGTCGGCAGCGTCAGATGTGTATAAGAGACAGTTTTTTTTTTTTTTTTTTTTTTTTT…TC
Conditions: aptamer strand: ATP DNA aptamer (quencher-CACCTGGGGGAGTATTGCGGAGGAAGG + anchor), 100 nM annealed; ATP concentration: 500 uM; one replicate
Procedure, shortened: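 After annealing to 100 nM quencher-labelled ATP aptamer, Cy3-labelled switching-strand clusters on a modified Illumina MiSeq flow-cell were imaged in selection buffer. A second image followed after 15 min with 500 uM ATP at 22 °C, and five such buffer/ATP cycles were done, each separated by NaOH stripping and re-annealing. The fluorescence ratio, averaged per switch-domain sequence, is summed target-cycle over summed buffer-cycle Cy3 intensity per cluster, with clusters outside 100-1000 RFU excluded.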
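Note: ATP exposure 15 min at 22 °C before imaging.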

Sequence | switch fluorescence ratio
GTAGACCGTT | 1.04
AATACGTGTA | 1
TTAGTTGATG | 0.991
ATGTATGAAG | 0.975
CGGCTACA | 1.03
ATTTGTCCTG | 1.04
CTGGGTCGCC | 0.979
GTCTTTGATT | 0.928
GTGGAGGAAT | 1.02
AAAAAATCCG | 1.05
AGGGGCGGG | 0.915
ATGGTGGAAT | 0.97
GCAGAATAT | 1.01
CAATTAGGAT | 0.932
TAAGATTTCA | 1.07
ATTACGACTT | 1.05
AGCTAATGAG | 1.02
ACTGGTAGTC | 0.988
TATTGATTCC | 1.05
TAATATGGAA | 1.01
AACCCACTAG | 1.34
TTACTGGTTC | 0.986
CGCTGTGCT | 1.12

Sequence | switch fluorescence ratio
GTCAGTTTGA | 0.972
GATACATT | 0.988
TCGCAAGCTG | 1.29
GACAAATTC | 0.984
CTAGATTGCA | 1.05
CGACCCGAAC | 1.13
TTGTAGGTTG | 0.97
TGATCCTGCG | 1.03
TAACATTCTT | 1.06
AACTACGCCG | 1.12
ACGACCGCTA | 2.73
GCGGTTGGGT | 0.941
GACCGACGTT | 1.31
TATCGTACCC | 1.13
AAAGTTACGC | 0.97
ATAATGAAC | 1.03
TAAAAGCTTC | 1.28
AGCCAGGACT | 1.03
AGTATAGGT | 0.963
ATCACGTACG | 1.78
TCCGAATCAG | 1.18
GGGCGGTTAC | 1.12
TCCATGTGGG | 1.02

Sequence | switch fluorescence ratio
AACGGAGGA | 0.974
GCTACTGTTT | 1.01
AGGCAAGCTA | 1.09
GAAAGAAGCT | 0.96
AATGTGGATC | 1.03
CTGAAGGTTT | 1.03
AGGCTGATTC | 0.913
GTAGGATGAG | 0.956
CCTACCGGCC | 1.5
CAAGCACAA | 1.24
AATTGGCCGT | 1.03
AGCGGCAAAT | 0.993
GCTCTGGGTG | 1.53
TTTCGTCTAA | 0.965
CTTCTGGAGA | 1.14
CCAGAAGACT | 0.963
CATATAGGGA | 0.997
TACTTCGGTT | 1.02
ATCGGCTTGG | 0.95
TGGGCATAGC | 0.964
CTTACTCTCC | 0.992
GTAAGGTTGG | 0.975
CTGCGGTTTT | 0.985

Sequence | switch fluorescence ratio
CTTGCGCGCC | 1
GTGCGCGGGG | 1.06
AGGCCGGGCC | 0.992
TCGGGGTTAA | 0.971
GATGAGAATA | 1.01
GCTTAACAGA | 1.01
TATGGCGTGA | 1.01
ACGCCACGCG | 1.05
AGTTGCAGA | 0.967
TGCTATGCTT | 1.05
CTGGGGTTAA | 1.01
GGTAGTGTGT | 1.02
CTGAGAATG | 0.998
TTAAGAAGCT | 1.01
AGTAAGGTAA | 1.06
GATGAGGGTT | 1.27
TCGATTTAT | 1.04
CTGGAAGTGG | 1.01
AGTTGCGCGG | 0.968
AGTGATCATG | 0.948
GGAATCCTCA | 1.01
TGCAAACGTT | 1.05
GCCAGAGTTG | 0.982

Sequence | switch fluorescence ratio
AGAATGGTTC | 1.01
GTATGGTCTC | 0.988
AGGCGACTCC | 1.11
CGCTGCAGGA | 1.11
GTAATATCAG | 1
CGGATCTACG | 0.971
ATAGTAATTG | 0.995
GAAATAGATT | 0.968
AGTCGAGACG | 1.03
ACGAGAGGCT | 0.936
CGAAGCGCTC | 2.34
TCACTGCTTA | 1.07
GTGATAGGTC | 1.06
CTAGTAGCGG | 0.965
AAGAGGCATT | 0.945
TTGTAGGCAT | 0.993
AAGGCGGGCG | 0.995
GAGTGGGAAA | 1.04
CATTGTACCG | 1.03
GGTAGGTGCG | 0.978
TGGAGGTAGA | 1.06
TTTCGACAAC | 1.13
CGGCCGGGCA | 1

Sequence | switch fluorescence ratio
CTGTATGTAG | 1.01
GTCTACGCGG | 1.06
ACGATTTAGG | 0.985
CAAGCTCAGG | 1.03
GATACGATTT | 1.01
CCCCCTCTGA | 1.09
ACAATTGGGC | 0.943
CAACGGGAGG | 1
TTAATGTAGG | 0.99
AGGCTGACCA | 1.03
CTGCACAGAC | 4.04
AATTTTATTA | 1
GGAAATTCTG | 0.962
CTTATATAGC | 1.03
TCTAGTTTTT | 1.01
CATCAGCGGC | 2.69
GCCGTCA | 1.01
CTTGCTCTTT | 0.999
GTACTGGGGC | 0.963
CACCTTTTCC | 1.28
TTGGGTGCAA | 1.04
GGAATGAAAA | 1
TAGAATAGTT | 1.05

Sequence | switch fluorescence ratio
AATTCGGGTA | 1.03
AGTGGAGGAG | 1.01
CCAAAGTGGG | 1.02
CTAAGCTT | 0.984
GCATGATCGG | 0.977
GGTTCGGTTA | 0.964
CCGTCAGGT | 1.01
TAGCCGCCTA | 1.05
TGAGGCGGTG | 0.975
TGGCCGCCTT | 1.01
TAGTCGTAAA | 1.04
TTGACGTTTT | 1.03
TCGGCGTATT | 0.982
GGCAGGGAAT | 0.984
CAAGGAAC | 0.99
GTTCGCGCAT | 1.13
CCTAGCCCTC | 1.2
TTCTTCTAGC | 0.988
AAACCCGAGA | 1.01
GAGAAGTGTT | 0.967
